Data from publication PMC3040723, “Three hydrophobic amino acids in Escherichia coli HscB make the greatest contribution to the stability of the HscB-IscU complex” (BMC Biochemistry, 2011).

Tests used:
Assay in all cases: ITC; 2.5-4 mM apo-IscU (injection syringe) titrated into 0.25-0.4 mM HscB (sample cell); 25 °C; 50 mM HEPES pH 7.5, 150 mM NaCl, 4 mM TCEP
Conditions in all cases: both partners purified
[1] = molecular target: T1, HscB(E104A) (E. coli, UniProt P0A6L9 1-171, E104A)
T1 construct: HscB, Escherichia coli, single alanine substitution; source: Escherichia coli, purified (DEAE-cellulose, size exclusion chromatography)
T1 sequence (looked up): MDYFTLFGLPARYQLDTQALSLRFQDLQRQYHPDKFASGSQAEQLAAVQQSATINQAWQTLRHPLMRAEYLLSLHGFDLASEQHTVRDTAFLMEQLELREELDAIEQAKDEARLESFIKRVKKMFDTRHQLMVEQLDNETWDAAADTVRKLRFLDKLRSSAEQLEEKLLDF

[2] = molecular target: T2, HscB(R152A) (E. coli, UniProt P0A6L9 1-171, R152A)
T2 construct: HscB, Escherichia coli, single alanine substitution; source: Escherichia coli, purified (DEAE-cellulose, size exclusion chromatography)
T2 sequence (looked up): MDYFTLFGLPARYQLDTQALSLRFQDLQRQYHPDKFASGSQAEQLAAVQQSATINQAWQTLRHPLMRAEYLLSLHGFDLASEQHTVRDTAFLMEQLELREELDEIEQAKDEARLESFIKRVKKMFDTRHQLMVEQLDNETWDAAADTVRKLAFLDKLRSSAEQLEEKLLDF

[3] = molecular target: T3, HscB(E97A) (E. coli, UniProt P0A6L9 1-171, E97A)
T3 construct: HscB, Escherichia coli, single alanine substitution; source: Escherichia coli, purified (DEAE-cellulose, size exclusion chromatography)
T3 sequence (looked up): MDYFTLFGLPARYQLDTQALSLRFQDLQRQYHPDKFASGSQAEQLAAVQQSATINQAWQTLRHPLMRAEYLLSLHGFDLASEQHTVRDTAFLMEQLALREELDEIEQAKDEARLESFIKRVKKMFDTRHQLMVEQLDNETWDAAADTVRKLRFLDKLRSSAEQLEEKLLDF

[4] = molecular target: T4, HscB(M93A) (E. coli, UniProt P0A6L9 1-171, M93A)
T4 construct: HscB, Escherichia coli, single alanine substitution; source: Escherichia coli, purified (DEAE-cellulose, size exclusion chromatography)
T4 sequence (looked up): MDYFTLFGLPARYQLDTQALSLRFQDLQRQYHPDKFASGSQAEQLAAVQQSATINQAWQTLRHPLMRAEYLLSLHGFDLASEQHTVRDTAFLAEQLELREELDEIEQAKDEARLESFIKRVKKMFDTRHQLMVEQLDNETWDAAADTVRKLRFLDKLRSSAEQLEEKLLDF

[5] = molecular target: T5, HscB(R87A) (E. coli, UniProt P0A6L9 1-171, R87A)
T5 construct: HscB, Escherichia coli, single alanine substitution; source: Escherichia coli, purified (DEAE-cellulose, size exclusion chromatography)
T5 sequence (looked up): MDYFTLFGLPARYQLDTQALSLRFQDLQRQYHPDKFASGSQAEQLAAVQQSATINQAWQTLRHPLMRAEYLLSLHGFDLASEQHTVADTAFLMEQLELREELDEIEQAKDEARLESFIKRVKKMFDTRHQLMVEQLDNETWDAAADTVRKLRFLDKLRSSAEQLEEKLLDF

[6] = molecular target: T6, HscB(E100A) (E. coli, UniProt P0A6L9 1-171, E100A)
T6 construct: HscB, Escherichia coli, single alanine substitution; Uniformly 15N-labelled for the NMR experiments; source: Escherichia coli, purified (DEAE-cellulose, size exclusion chromatography)
T6 sequence (looked up): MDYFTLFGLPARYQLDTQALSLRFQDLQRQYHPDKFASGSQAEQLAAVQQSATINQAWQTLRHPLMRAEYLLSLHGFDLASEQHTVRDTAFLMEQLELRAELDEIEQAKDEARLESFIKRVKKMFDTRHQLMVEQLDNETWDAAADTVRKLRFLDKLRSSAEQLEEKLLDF

[7] = molecular target: T7, HscB(F153A) (E. coli, UniProt P0A6L9 1-171, F153A)
T7 construct: HscB, Escherichia coli, single alanine substitution; source: Escherichia coli, purified (DEAE-cellulose, size exclusion chromatography)
T7 sequence (looked up): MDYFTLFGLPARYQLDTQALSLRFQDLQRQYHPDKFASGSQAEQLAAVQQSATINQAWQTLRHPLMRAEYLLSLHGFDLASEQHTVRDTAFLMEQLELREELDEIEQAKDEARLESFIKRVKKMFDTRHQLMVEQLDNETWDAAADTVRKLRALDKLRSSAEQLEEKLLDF

[8] = molecular target: T8, HscB(R99A) (E. coli, UniProt P0A6L9 1-171, R99A)
T8 construct: HscB, Escherichia coli, single alanine substitution; source: Escherichia coli, purified (DEAE-cellulose, size exclusion chromatography)
T8 sequence (looked up): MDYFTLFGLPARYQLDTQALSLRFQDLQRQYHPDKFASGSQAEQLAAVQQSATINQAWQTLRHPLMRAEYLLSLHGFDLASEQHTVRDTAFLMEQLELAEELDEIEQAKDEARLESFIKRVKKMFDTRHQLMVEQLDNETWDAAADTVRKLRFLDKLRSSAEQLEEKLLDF

B1: apo-IscU (natural protein, E. coli, UniProt P0ACD4 1-128, looked up)
chain: MAYSEKVIDHYENPRNVGSFDNNDENVGSGMVGAPACGDVMKLQIKVNDEGIIEDARFKTYGCGSAIASSSLVTEWVKGKSLDEAQAIKNTDIAEELELPPVKIHCSILAEDAIKAAIADYKSKREAK
notes: No tag is mentioned; purified by ion exchange and gel filtration, so probably untagged whole protein; source: Escherichia coli, purified (DEAE-cellulose, DEAE-Biogel, size exclusion chromatography)
Ka [1]: 172000 M⁻¹ | dH [1]: -2.8 kcal/mol | stoichiometry N [1]: 0.83 | Ka [2]: 65000 M⁻¹ | dH [2]: -1.34 kcal/mol | stoichiometry N [2]: 1.09 | Ka [3]: 173000 M⁻¹ | dH [3]: -2.6 kcal/mol | stoichiometry N [3]: 0.96 | Ka [4]: 255000 M⁻¹ | dH [4]: -1.25 kcal/mol | stoichiometry N [4]: 0.83 | Ka [5]: 28000 M⁻¹ | dH [5]: -0.88 kcal/mol | stoichiometry N [5]: 1.04 | Ka [6]: 24000 M⁻¹ | dH [6]: -2.22 kcal/mol | stoichiometry N [6]: 0.91 | Ka [7]: 5000 M⁻¹ | dH [7]: 0.58 kcal/mol | stoichiometry N [7]: 0.78 | Ka [8]: 19000 M⁻¹ | dH [8]: 1.18 kcal/mol | stoichiometry N [8]: 0.69
